Results as given in patent publication US20140248666A1 (Amgen, published 2014).

Molecular target: T1, human sclerostin, mature form (signal peptide removed) (human, UniProt Q9BQB4 24-213)
T1 construct: 190 amino acid glycoprotein with four disulfide bonds (C1-C5, C2-C6, C3-C7, C4-C8); also called SOST; recombinant human sclerostin
T1 sequence: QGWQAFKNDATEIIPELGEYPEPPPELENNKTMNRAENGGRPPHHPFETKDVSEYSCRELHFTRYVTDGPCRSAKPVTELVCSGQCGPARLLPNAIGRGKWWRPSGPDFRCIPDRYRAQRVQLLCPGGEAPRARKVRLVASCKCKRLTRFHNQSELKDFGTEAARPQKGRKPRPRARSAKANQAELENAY
Assay: Biacore 3000; antibody captured by anti-human IgG Fc, sclerostin as analyte
Protocol: The assay format was capture of the anti-sclerostin antibody by immobilised anti-human IgG-Fc then titration of the sclerostin over the captured surface. An example of the procedure is given below: BIA (Biamolecular Interaction Analysis) was performed using a BIAcore 3000 (BIAcore AB). Affinipure F(ab′)₂ Fragment goat anti-human IgG, Fc fragment specific (Jackson
ImmunoResearch) was immobilised on a CM5 Sensor Chip via amine coupling chemistry to a capture level of ≈4000 response units (RUs). HBS-EP buffer (10 mM HEPES pH 7.4, 0.15 M NaCl, 3 mM EDTA, 0.005% Surfactant P20, BIAcore AB) containing 1 mg/mL CM-Dextran was used as the running buffer with a flow rate of 10 μl/min. A 10 μl injection of the anti-sclerostin antibody at ˜5 μg/mL was used for capture by the immobilised anti-human IgG-Fc. Antibody capture levels were typically 100-200 RU. Sclerostin was titrated over the captured anti-sclerostin antibody at various concentrations at a flow rate of 30 μL/min. The surface was regenerated by two 10 μL injections of 40 mM HCl, followed by a 5 μL injection of 5 mM NaOH at a flowrate of 10 μL/min.
Background subtraction binding curves were analysed using the BIAevaluation software (version 3.2) following standard procedures. Kinetic parameters were determined from the fitting algorithm.

Kd: 0.0158 nM
koff: 4.16e-05 s⁻¹
kon: 2.62e+06 M⁻¹ s⁻¹
B1: Antibody 20 (antibody, human IgG4 S228P, kappa)
light: DIQMTQSPSSLSASVGDRVTITCRASQDISSYLNWYQQKPGKAPKLLIYSTSRLNSGVPSRFSGSGSGTDFTLTISSLQPEDFATYYCQQDIKHPTFGQGTKVEIKRTVAAPSVFIFPPSDEQLKSGTASVVCLLNNFYPREAKVQWKVDNALQSGNSQESVTEQDSKDSTYSLSSTLTLSKADYEKHKVYACEVTHQGLSSPVTKSFNRGEC
heavy: EVQLVQSGAEVKKPGSSVKVSCKASGFTFTDYIMHWVRQAPGQGLEWMGYINPYNDDTEYNEKFKGRVTITADKSTSTAYMELSSLRSEDTAVYYCARSIYYYDAPFAYWGQGTLVTVSSASTKGPSVFPLAPCSRSTSESTAALGCLVKDYFPEPVTVSWNSGALTSGVHTFPAVLQSSGLYSLSSVVTVPSSSLGTKTYTCNVDHKPSNTKVDKRV[human IgG4 Fc with S228P (EU numbers) omitted]
notes: Humanized Ab-19, IgG4 version; also called Ab-20; Ab20
